Reference: PubChem BioAssay AID2546 (National Center for Advancing Translational Sciences (NCATS), 2010)
Screen size: about 310,000 compounds; about 11,000 (3.5%) were called active. Inconclusive results, whose numbers are uncertain, are shown with a selection of clear calls. Calls follow the shape of the dose curve; as a rule, active = well fitted inhibition curve with a large enough effect; inconclusive = small, poorly fitted or top-dose-only effect, or effect the other way; inactive = flat fitted curve, though single readings scatter. No potency is given beside an inconclusive call; the fits are too rough.
Potency is read from the fitted curve at half-maximal effect; tags tell the direction and shape of the fitted curve.

Test: VP16 counterscreen qHTS for inhibitors of ROR gamma transcriptional activity;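 also: Gal4-VP16 expression switched on by copper sulfate through the metallothionein promoter; nearly all actives have a fitted effect of over 50% in size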
Conditions: Drosophila S2 Gal4-VP16 UAS-luciferase, luminescence, 20 h; series mostly up to 53.6 µM
For O=C(c1cncc(Br)c1)N1CCc2ccccc2C1, the Potency was “inactive”. In the case of COc1ccc2nc(NC(=O)CSc3nnc(C)n3N)sc2c1, the Potency is reported as inconclusive [inhibitor, single point]. In the case of Cc1ccc(C(=O)O/N=C(\N)c2ccccn2)c(C)c1, the Potency is reported as active: 6.31 µM. With O=C(N/N=C\c1cc(Br)c(Br)o1)c1cncc(Br)c1 the Potency was active: 2 µM. With CC(C)(C)C(=O)NC(=S)Nc1ccccc1F the Potency was inconclusive [inhibitor, single point]. With CCCCOc1ccc(C2CC(=O)NC2=O)cc1 (stereo unspecified) the Potency was inconclusive [inhibitor, single point]. For Cn1c(OCc2cccnc2)nc2c1c(=O)n(Cc1ccc(Br)cc1)c(=O)n2C, the Potency was inconclusive [inhibitor, partial curve]. In the case of CC(/C=C/c1ccccc1)=N\NC(=O)Cn1nc(C)cc1C, the Potency is reported as inconclusive [inhibitor, single point]. With C=CCn1c(SCC(=O)c2cccs2)nc2sc(CC)cc2c1=O the Potency was inconclusive [inhibitor, single point]. With Cc1cccc(N=Nc2c(N)n[nH]c2-c2ccc(Cl)cc2)c1 the Potency was inconclusive [inhibitor, single point]. With Cc1ccccc1-n1c(SCC(=O)N/N=C/c2c(C)nn(-c3ccccc3)c2C)nc2ccccc2c1=O the Potency was “inactive”. With CCCSC1=N/C(=C/c2ccsc2)C(=O)N1c1ccccc1 the Potency was inconclusive [inhibitor, single point]. For O=C(Nc1cccc(Cl)c1Cl)c1cc(S(=O)(=O)NCCc2ccccc2)ccc1F, the Potency was “inactive”. For C/C(=N\NC(=O)CSCc1ccc([N+](=O)[O-])cc1)c1cccc(Br)c1, the Potency was inconclusive [inhibitor, single point]. In the case of Cc1nn2c(NCCN3CCOCC3)c3c(nc2c1-c1ccccc1)CCCC3, the Potency is reported as active: 3.55 µM. For COc1ccccc1NC(=S)NC(=O)CCCOc1ccc(Cl)cc1Cl, the Potency was active: 15.8 µM. In the case of O=C(/C=C/c1ccco1)NC(=S)Nc1ccccn1, the Potency is reported as inconclusive [inhibitor, single point]. For O=C(CSc1nnnn1-c1ccccc1Cl)Nc1ccc2c(c1)OCCO2, the Potency was inconclusive [inhibitor, single point]. With Cc1ccc(-n2c(C)cc(C(=O)CN3CCOCC3)c2C)cc1 the Potency was “inactive”. For CC(=O)N/N=C/C1=CCC2CC1C2(C)C (stereo unspecified), the Potency was “inactive”. In the case of CCN1C(=O)c2ccc(C(=O)Nc3cccc(C(=O)O)c3)cc2C1=O, the Potency is reported as inconclusive [inhibitor, single point]. In the case of Cc1nn(CC(C)C)c(Cl)c1C(=O)N(C)CC(=O)Nc1c(Cl)cccc1Cl, the Potency is reported as inconclusive [inhibitor, partial curve]. With Cc1cc(OCC(=O)N(C)Cc2ccccc2)ccc1Cl the Potency was inconclusive [activator, single point]. In the case of COc1ccc(NC(=O)/C(C#N)=C/c2ccc(Sc3nncn3C)c([N+](=O)[O-])c2)cc1, the Potency is reported as active: 22.4 µM. With CCCOc1nc2c(c(=O)n(C)c(=O)n2C)n1Cc1cccc2ccccc12 the Potency was inconclusive [inhibitor, single point]. For COc1ccc(-c2[nH]ncc2N=Nc2ccccc2)cc1, the Potency was inconclusive [inhibitor, single point]. In the case of Cc1ccc(S(=O)(=O)N(C)C)cc1NC(=O)c1ccc(OC(F)(F)F)cc1, the Potency is reported as inconclusive [activator, single point]. For Nc1c(-c2ccccc2)cnn1-c1cccc(C(F)(F)F)c1, the Potency was inconclusive [inhibitor, partial curve]. For Cc1nc(NC2CCCCC2)c2nc(-c3ccccc3)n(CCN3CCCCC3)c2n1, the Potency was “inactive”. With N#CCOc1ccccc1/C=C/c1nc2ccccc2c(=O)[nH]1 the Potency was inconclusive [activator, single point]. In the case of O=C1C=C(Nc2ccccc2)CC(c2ccccc2)C1 (stereo unspecified), the Potency is reported as “inactive”. With COC(=O)C1Cc2c([nH]c3ccccc23)C2(CCN(Cc3ccccc3)CC2)N1 (stereo unspecified) the Potency was “inactive”. In the case of CC(Oc1cccc(Cl)c1)C(=O)Nc1ccncc1 (stereo unspecified), the Potency is reported as active: 12.6 µM. With COc1ccc(/C(N)=N/OC(=O)c2ccco2)cc1OC the Potency was inconclusive [activator, full curve, poor fit]. With Cc1ccc(-n2nc3ccc(N)cc3n2)cc1C the Potency was inconclusive [inhibitor, single point]. For C=CCNC(=O)c1ccc2c3n(nc2c1)-c1ccc(C)cc1CO3, the Potency was inconclusive [inhibitor, partial curve, poor fit]. With Cc1ccc(NS(=O)(=O)c2ccc(NC(=O)c3ccc(Br)o3)cc2)c(C)c1 the Potency was inconclusive [inhibitor, single point]. For COc1cccc([C@@H]2Oc3ccc(OC)cc3C(=O)[C@H]2OC(=O)NCCc2ccc(OC)c(OC)c2)c1, the Potency was inconclusive [inhibitor, single point]. For COCc1nnc(NC(=O)c2ccc(S(=O)(=O)N3CCCc4ccccc43)cc2)o1, the Potency was active: 3.55 µM. With CC(C)Nc1nc(Oc2cccc(Cl)c2Cl)cc(C(F)(F)F)n1 the Potency was inconclusive [inhibitor, single point]. For CCOc1ccc(NC(=NCc2ccc3c(c2)OCO3)SC2CC(=O)N(c3ccccc3)C2=O)cc1 (stereo unspecified), the Potency was inconclusive [inhibitor, single point]. With Cn1ncc2c(NNC(=O)c3ccccc3Cl)ncnc21 the Potency was inconclusive [inhibitor, single point]. With O=C(Nc1nc(-c2ccc(Cl)cc2)cs1)NC1CCCCC1 the Potency was inconclusive [inhibitor, single point]. With CNC(=O)c1cc2ncc(C(F)(F)F)cc2s1 the Potency was inconclusive [activator, partial curve, poor fit]. In the case of COc1ccc(S(=O)(=O)N2CCCC(C(=O)NCc3ccccc3)C2)cc1 (stereo unspecified), the Potency is reported as “inactive”. With COc1cc(CC(=O)N/N=C/c2ccc([N+](=O)[O-])cc2)c([N+](=O)[O-])cc1OC the Potency was “inactive”.
